Experimental data taken from EP4329743B1 (priority 2021, dated 2022).

Legend:
[1] = tested on: pathogenic microbes
Procedure: Upon playing in the garden by digging in the ground non-disinfected hands of a child were contacted with sterile blood agar plates containing ethyl pyruvate (middle) ethyl lactate (right) and medium (left) for 30 seconds and incubated for 48h at 37°C.

[2] = tested on: primary human skin fibroblasts
[3] = tested on: LNCaP cells
[4] = in vivo; cited from earlier work

| Compound | killing of microbes on blood agar plates [1] | toxicity on primary human fibroblasts [2] | vitality of primary human fibroblasts [2] | proliferation of DHT-activated LNCaP cells [3] | proliferation of non-activated LNCaP cells [3] | side effects in clinical studies [4] |
| --- | --- | --- | --- | --- | --- | --- |
| CCOC(=O)C(C)O (centres unmarked) [ethyl lactate, reference compound] | not effective | – | – | – | – | – |
| CCOC(=O)C(C)=O [ethyl pyruvate, Ethyl pyruvate] | killing most pathogenic microbes | not toxic over the concentration range investigated | does not significantly influence vitality | inhibited | not inhibited | has not shown any side effects |
| CC(=O)C(=O)O [pyruvate, reference compound] | – | – | – | no inhibitory effect | – | – |
